In the supplement of paper PMC8285479:
Structures can show the parent of a compound that is named as a salt. ± gives the standard deviation of the averaged measurements. In all, about 1,900 compounds were measured (“normalised cell viability (NPI; 0 = phenylarsine oxide control, 1 = DMSO control)”: median about 1, lowest 2% from about 0.039 on). The list shows a part of the results.

Test system: NCI-H1944
Assay: normalised cell viability (NPI; 0 = phenylarsine oxide control, 1 = DMSO control) (fraction of DMSO control); NCI-H1944 is a non-small cell lung cancer line; higher = more viable cells (less compound toxicity)
Details: 6 days
[1] = glucocorticoid arm: hydrocortisone 2.75 uM co-treatment, compound 1 µM
[2] = glucocorticoid arm: hydrocortisone 2.75 uM co-treatment, compound 5 µM
[3] = glucocorticoid arm: hydrocortisone 2.75 uM pre-treated 2 days and continued, compound 1 µM
[4] = glucocorticoid arm: hydrocortisone 2.75 uM pre-treated 2 days and continued, compound 5 µM
[5] = glucocorticoid arm: vehicle, compound 1 µM
[6] = glucocorticoid arm: vehicle, compound 5 µM
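Also: CTB read-out in 384-well plates, mean of triplicate wells, normalised per plate against 1 µM phenylarsine oxide and 0.1% DMSO, compounds added 24 h after seeding.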

`O=C(O[C@H]1CN2CCC1CC2)N1CCc2ccccc2[C@@H]1c1ccccc1` [Solifenacin succinate] showed a normalised cell viability [1] of 0.99 ± 0.021, a normalised cell viability [2] of 0.971 ± 0.018 and a normalised cell viability [3] of 0.99 ± 0.051. The normalised cell viability [4] was 0.9917 ± 0.0081, the normalised cell viability [5] was 0.9963 ± 0.0063 and the normalised cell viability [6] was 0.9947 ± 0.0046.

`COc1cc(OC)c(C=C2C(=O)Nc3ccccc32)c(OC)c1` was tested, and the normalised cell viability [1] was 1.04 ± 0.01, the normalised cell viability [2] was 0.723 ± 0.016 and the normalised cell viability [3] was 1.07 ± 0.031. The normalised cell viability [4] was 1.11 ± 0.015, the normalised cell viability [5] was 1.017 ± 0.0058 and the normalised cell viability [6] was 0.163 ± 0.029.

With `O=Nc1c(-c2c(O)[nH]c3cc(Br)ccc23)[nH]c2ccccc12` the normalised cell viability [1] was 1.15 ± 0.01, the normalised cell viability [2] was 1.24 ± 0.032 and the normalised cell viability [3] was 1.127 ± 0.011. For the same compound, the normalised cell viability [4] was 1.16 ± 0.031, the normalised cell viability [5] was 1.04 ± 0.01 and the normalised cell viability [6] was 1.07 ± 0.01.

For `CCN(CC)CC#CCOC(=O)C(O)(c1ccccc1)C1CCCCC1` (stereo not drawn) [Oxybutynin Chloride], the normalised cell viability [1] was 0.9927 ± 0.0065, the normalised cell viability [2] was 0.967 ± 0.037 and the normalised cell viability [3] was 1 ± 0.012. It also gave a normalised cell viability [4] of 1.04 ± 0.07, a normalised cell viability [5] of 1.017 ± 0.0058 and a normalised cell viability [6] of 1.03 ± 0.011.

In the case of `CCN(CC)CC#CCOC(=O)C(O)(c1ccccc1)C1CCCCC1` (stereo not drawn) [Oxybutynin chloride], the normalised cell viability [1] is reported as 0.992 ± 0.02, the normalised cell viability [2] is reported as 0.954 ± 0.018 and the normalised cell viability [3] is reported as 0.986 ± 0.012. For the same compound, the normalised cell viability [4] was 0.979 ± 0.03, the normalised cell viability [5] was 0.9887 ± 0.0093 and the normalised cell viability [6] was 0.989 ± 0.018.

Compound `N=C(N)c1ccccc1` [Benzamidine hydrochloride] has a normalised cell viability [1] of 1.01 ± 0.013, a normalised cell viability [2] of 1.02 ± 0.01 and a normalised cell viability [3] of 1.003 ± 0.0058. The normalised cell viability [4] was 1.03 ± 0.028, the normalised cell viability [5] was 1.007 ± 0.0058 and the normalised cell viability [6] was 1.01.

For `O=C(NCCNCC(O)COc1ccc(O)cc1)N1CCOCC1` (stereo not drawn) [Xamoterol hemifumarate], the normalised cell viability [1] was 1.01 ± 0.01, the normalised cell viability [2] was 1.02 ± 0.021 and the normalised cell viability [3] was 0.933 ± 0.14. It also gave a normalised cell viability [4] of 1.03 ± 0.021, a normalised cell viability [5] of 0.9973 ± 0.0031 and a normalised cell viability [6] of 1.005 ± 0.0092.

`O=Nc1c(-c2c(O)[nH]c3ccccc23)[nH]c2ccccc12` [Indirubin-3'-oxime] showed a normalised cell viability [1] of 1.047 ± 0.0058, a normalised cell viability [2] of 0.0929 ± 0.025 and a normalised cell viability [3] of 1.05. The normalised cell viability [4] was 0.364 ± 0.071, the normalised cell viability [5] was 1.017 ± 0.0058 and the normalised cell viability [6] was 0.057 ± 0.019.

For `CCCCC/C=C\C[C@@H](O)/C=C/c1cccc(C[C@@H](O)CCCCO)n1`, the normalised cell viability [1] was 1.005 ± 0.0081, the normalised cell viability [2] was 1.05 ± 0.04 and the normalised cell viability [3] was 1.01 ± 0.015. For the same compound, the normalised cell viability [4] was 1.04 ± 0.011, the normalised cell viability [5] was 1.013 ± 0.0058 and the normalised cell viability [6] was 1.027 ± 0.0058.

`COc1ccc2[nH]cc(CCNC(C)=O)c2c1` [Melatonin] showed a normalised cell viability [1] of 1.007 ± 0.0058, a normalised cell viability [2] of 0.998 ± 0.022 and a normalised cell viability [3] of 1.013 ± 0.0058. It also gave a normalised cell viability [4] of 0.989 ± 0.018, a normalised cell viability [5] of 0.9957 ± 0.0029 and a normalised cell viability [6] of 1 ± 0.016.

For `CN(C)Cc1cccc(N=C(c2ccccc2)c2c(O)[nH]c3cc(C(N)=O)ccc23)c1`, the normalised cell viability [1] was 0.9887 ± 0.005, the normalised cell viability [2] was 0.927 ± 0.025 and the normalised cell viability [3] was 0.991 ± 0.019. For the same compound, the normalised cell viability [4] was 0.943 ± 0.018, the normalised cell viability [5] was 0.9967 ± 0.0058 and the normalised cell viability [6] was 0.985 ± 0.011.

Work on `COc1ccc(C(=O)NCc2cccnc2)cc1C(=O)NCc1cccnc1` [Picotamide] yielded a normalised cell viability [1] of 0.989 ± 0.017, a normalised cell viability [2] of 0.992 ± 0.004 and a normalised cell viability [3] of 0.867 ± 0.26. It also gave a normalised cell viability [4] of 1 ± 0.016, a normalised cell viability [5] of 1.007 ± 0.0058 and a normalised cell viability [6] of 1.003 ± 0.0064.

Compound `O=c1c(O)c(-c2cc(O)c(O)c(O)c2)oc2cc(O)cc(O)c12` [Myricetin] has a normalised cell viability [1] of 1.006 ± 0.0075, a normalised cell viability [2] of 1.01 ± 0.02 and a normalised cell viability [3] of 0.999 ± 0.0017. It also gave a normalised cell viability [4] of 1.05 ± 0.063, a normalised cell viability [5] of 0.992 ± 0.0072 and a normalised cell viability [6] of 0.998 ± 0.011.
